# The full ranking holds about 4,500 sequences; the median of “median log2 fold change of GCK-ALFA target abundance (FLAG IP / Myc IP barcode read proportion)” is about 0.078, and the lowest 2% start at about -0.6. Some of the results follow.
# B1: GBRAP_11_2788 (protein)
# chain: KKEKLEKLAKLLEEAAKLLEKMLAGPPDDEELWKETEKKLEEAEKLAKELGLEDVAELLEYAKEDLEKAKADPENRKEYLQRALTFVRVAEGLVLLEIEE
# B2: GBRAP_35_5558 (protein)
# chain: ETDEEVLEMMTNTAEDALLAVDTIPVETLYEITTSIARAALKILREEKDNEEGMGKLAKATLELLDATIEKLKKEGAPQEKIEELEKLRKEIEEELEKIK
# B3: GBRAP_160_4519 (protein)
# chain: SEALEEAEKELEETAKEAIEMIKGETAEQRAVIVAGEFGSFAMELASNEEFSDEMVDVVLDGEDELVAYILANPDLTDEELEKLIEETVKKIKEELRKLS
# B4: GBRAP_9_7159 (protein)
# chain: LQALLDAFAAVLRDAFDEIAEIVPPEHRPVVEAARAEFEARFAALKADPSTTAEEAKEAALEALRRAAERVAAVVDPATARQAEAIILTAELEIEEIYEK
# B5: GBRAP_128_3557 (protein)
# chain: STEEAVERVRELLEAIKNSDAETARELAEELAALLAAADEETREAIVEEILERLPELSVEHLEILADVFRAAQPSADPAVAEALAEIAVEALNEAVEKEE
# B6: GBRAP_160_4334 (protein)
# chain: SEETEKLKKFIEEEFEETEKLIEGETIEQVKVLIEGTFGEIIMELSENEKVSDELLDKVIEIEDELLETLDKNPDLTEEEIKELIKESREKIIKALEESE
# B7: GBRAP_160_4838 (protein)
# chain: SEKVKAVRERLTAARDRVLAEVDKVTVEQLANFYDVEFSSVILDLREEGYINEEAEDVALEIVDQGVADLLAAKDATPEELRAIITRHTDRLIAEIEKLI
# B8: GBRAP_78_6684 (protein)
# chain: EVEEELEKAIEHLNKAAKLLNEIGTEEALDLLGEVIDAAATVEEAYFGEADLEELEKALKKLKAALKKAKEIPTAEAKEVAAELAKAIAHLEKAIKLLKK
# B9: GBRAP_11_2647 (protein)
# chain: KKETLLEAAEIARELAEVIKELIEKGVDDKELQKKAEELLKKLEELAKKYLNEAIKSDVEVAKELWKEFKEDKENALKYAKELLAAVRVLEGNLLLEADE
# B10: GBRAP_184_5339 (protein)
# chain: KTLEVHIPNSSTEEIVAKFREAAKEAAAQGADLNVHIEAEGMSTEEVVALLKELGKIAKEEGIKNVTVGIDQELDEEGADKVIAVADEYGIRLTVALKDE
# B11: GBRAP_160_4448 (protein)
# chain: SETLEKLIKLVDETTEEIKKLIEGQTHEERVVIIDVGFGELLLEFIENENVSDELEDEIAEIVDETVEYLKNNPELTEEEIKELIDEAGEKIKEAIKKHL
# B12: GBRAP_80_6772 (protein)
# chain: MEEEIEKVLKEIEKIDPEIAKLVKEAIEVARKLGVPEEVILDFAKAILELAKKDKEKARKIVKEALEELKEALKRGDKEEALAILVDAISEALLEVEELE
# B13: GBRAP_160_4525 (protein)
# chain: SENLEKAKELLEETAKELIELMKGESAEERAVIAAVEFGSLAYEFSEIPGITDEMVDVVLKQQDKLVAWILAHPDITDEEFAAKVEETVKTIKEELEKLS
# B14: GBRAP_128_3350 (protein)
# chain: LDEERLARVRAMAEAMVAADVETTRALTRELAAFIRTLDRATAEAAAEIVEAALPRFTVEQLEAIADALREARPEADPYVANLLAGVEVEALNEAEELEE
# B15: GBRAP_160_4257 (protein)
# chain: MEKREELIKEAEEDRDEILELVDTESAADVKTFAVVEMGSIIMEAIDLEVISDEEEDELMAIRDDLEADLTAAANASKDTIKAIITKYYDKLIELLKKAK
# B16: GBRAP_184_5128 (protein)
# chain: ELVNRAVEGTKAEELIKKAKEVVEEAKAKGKKLNLAVFAENMSVEEIIEVIKALGEIKKKYPEVNITLVVEDELSEEEIDKLVKEADENGVNLVLAIKEE
# B17: GBRAP_57_6455 (protein)
# chain: MSRLEKLKEAVERARELIEAGAPEEEIREAVREAVDALSEEDALDVLLQVDPEADPELSLEEVRERLVELVMEALRTEGPEAAKRLLDLALGQAEMSELE
# B18: GBRAP_11_2848 (protein)
# chain: EKEKLEEVAKQAEKLIELLEKLIKEGVDNEELLEEVEKQMEELLKLVEELGNESLKKIAEIAKENIEKIKTDPSNKEFYANNALAAVRTLRGQALLEIEE
# B19: GBRAP_160_4606 (protein)
# chain: SEKIEEFKKLVKELFEEAKEMIKGQTTEERATIVDVTFGEIILEAIELEVLSDEAIDKIAAIGDATVATILANPDLTDEEIKALIDEAEKKILEILDEEE
# B20: GBRAP_74_6549 (protein)
# chain: SEELLKEAEEAAKAKDLAKLVELAREALEAGDKETAARILSLLLKTFVENKDEVTLEEADALADVIDEVLASGITELLSREDLKLLVEALAHAQELEAAA
# B21: GBRAP_160_4819 (protein)
# chain: SSKLEEVLKEIDEAEKRVLEVADTESVAQAATMFEGEFGSLILELEEKGYVSDEALDKIKEIVDETVAYLKANPDLSVEEVKKLITEASKKIKEIIEKDA
# B22: GBRAP_52_5855 (protein)
# chain: SKEKMRKLAEELLKLKLAGKEEELEKKVKELVATLSEEEILELLKELAELAKKANKEEAEAIAEVAELLADEAEKAGFDEDELSYELAKVYAAAYKVLQK
# B23: GBRAP_125_3062 (protein)
# chain: AKAANIANLETIARALGYSEDDIAELRKLAEAGSIKNTLIAIALAEGREELAEALARLTEEETAAVLAELAAELAANPELTPEEVLELLLELARRALAAR
# B24: GBRAP_184_5237 (protein)
# chain: KVLVRTVRAKDAEELRAKLEEVRAEARAEGAVVELIIEVEELTPEKVDVIAEMIAEMAAEGLLTLVEVVSSTPIPEEHIDRLVAAADAAGVRLVIAEPDP
# B25: GBRAP_64_6483 (protein)
# chain: MEEIEELLKKALEYIEKALELAKKENPEIAKLLEEAKKLLEEAKEKDLEEAADLVAEVADILNEILKNPELSEELKELVSEALDYVSEALWELEEEIEEK
# B26: GBRAP_160_4341 (protein)
# chain: SERIEKLKEYVNEEFEETKELIEGLSIEQRRVLIEGTLGEIAMELAEDESISDETVDKVIEIRDETIEYLKEHPDLSLEEIKELIDEAREKIIEILEESE
# B27: GBRAP_160_4128 (protein)
# chain: SSKIKKAVEDMKEDLIETWKATKDLPIDERVKILRAEAYTDLLAMHEELNLSDETFDKLLEVVDKMLEEIRANPNLTDEEVEALIEKMAEEILKIIEEEK
# B28: GBRAP_117_2603 (protein)
# chain: MSKREKAKKLAKELVELIRKALEEKKTLTPEEREKLEKETLEKVTKIVKEMLELTSEDELEELFAEATKDLTPEERVEAYIIYYEALAEALDERKKEEEE
# B29: GBRAP_53_6399 (protein)
# chain: NEEEIKKLKEEILKLAKEAAKADEEERAKLVKEIGKALKELVKAGMPEEEITELAREVAKTLKEAGASDRDLVALANTLASLGREEATAEVGEVAVEDLE
# Target: GABARAP, O95166
# Sequence (O95166 whole entry, the tested form may be a part): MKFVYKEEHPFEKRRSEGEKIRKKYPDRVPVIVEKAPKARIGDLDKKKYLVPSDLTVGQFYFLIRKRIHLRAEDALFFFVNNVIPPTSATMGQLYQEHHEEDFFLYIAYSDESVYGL
# Experiment: median log2 fold change of GCK-ALFA target abundance (FLAG IP / Myc IP barcode read proportion) (log2 ratio); each designed protein is fused to an ALFA-tag nanobody in HEK293 cells to bring the named protein to FLAG-tagged glucokinase (GCK); Myc marks an untargeted standard; higher = target protein stabilised (more abundant)
# Conditions: target protein: 3xFLAG-MCP-GCK-ALFA reporter; HEK293 landing pad (RPLP)
# Summary of the method: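 An ALFA-nanobody-fused binder library was recombined into HEK293 landing-pad cells and induced with 2 μg mL^−1 doxycycline. Cells were transfected with a plasmid expressing a FLAG-tagged target and a Myc-tagged standard. After 48 h, lysates underwent anti-FLAG and anti-Myc immunoprecipitation, and circular RNA barcodes were reverse transcribed, amplified and sequenced. Target abundance is the per-binder median log2 ratio of FLAG to Myc barcode read proportions. Barcodes needed ≥10^−7 proportion in both replicates, binders ≥3 barcodes per replicate, and a 10^−6 pseudocount was added; the two replicates were pooled.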
row,Binder,median log2 fold change
1,B1,-0.273
2,B2,0.122
3,B3,-0.322
4,B4,0.249
5,B5,0.148
6,B6,-0.128
7,B7,0.195
8,B8,0.239
9,B9,0.394
10,B10,0.215
11,B11,-0.366
12,B12,0.119
13,B13,-0.0547
14,B14,0.0288
15,B15,0.229
16,B16,-0.103
17,B17,0.286
18,B18,0.118
19,B19,-0.282
20,B20,-0.126
21,B21,0.199
22,B22,-0.0898
23,B23,-0.11
24,B24,0.184
25,B25,0.0749
26,B26,-0.0943
27,B27,0.0728
28,B28,0.285
29,B29,0.29
